Consider eight variants from the supplement of paper PMC12217912.

This is one part of the list. The full chains were built here from the parent and the listed change. Values near 0.05 are background.

The labels stand for the following.
B1: TEV protease; numbered along this chain (parent)
chain: MGESLFKGPRDYNPISSSICHLTNESDGHTTSLYGIGFGPFIITNKHLFRRNNGTLVVQSLHGVFKVKDTTTLQQHLVDGRDMIIIRMPKDFPPFPQKLKFREPQREERICLVTTNFQTKSMSSMVSDTSCTFPSGDGIFWKHWIQTKDGQCGSPLVSTRDGFIVGIHSASNFTNTNNYFTSVPKNFMELLTNQEAQQWVSGWRLNADSVLWGGHKVFMVKPEEPFQPVKEATQL

Variants of B1 are the subject of this test. The experiment in a line: raw area under fraction-flipped curve 0-4 h after induction (AUC4h, not background-subtracted), DNA-recorder readout of cleavage of the substrate (dimensionless); higher = more cleavage of the substrate by the protease variant. The following applies: temperature: 34 °C; time window: 0-4 h after rhamnose induction. The protocol:
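In vivo DNA recorder in E. coli TOP10(DE3) ΔrhaA at 34 °C. Each TEVp single-site mutant (parent TEVp 0) is paired with a single-site variant of the 7-mer TEVs (canonical ENLYFQ|S). The substrate sits between flexible linkers in a Bxb1-sfGFP-TEVs-SsrA fusion, so cleavage stabilises Bxb1 and speeds flipping of a recombination array, read by NGS. The value is the raw area under the fraction-flipped curve over 0-4 h after rhamnose induction (AUC4h), with ≥20 reads per time point. It is not background-subtracted; inactive controls average about 0.047.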
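Note: Bxb1 expression induced with 0.2% (w/v) L-rhamnose at OD600 near 0.5, cultures sampled hourly, flipped fraction per protease–substrate barcode pair counted by paired-end Illumina sequencing.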

On to MGESLFKGPRDQNPISSSICHLTNESDGHTTSLYGIGFGPFIITNKHLFRRNNGTLVVQSLHGVFKVKDTTTLQQHLVDGRDMIIIRMPKDFPPFPQKLKFREPQREERICLVTTNFQTKSMSSMVSDTSCTFPSGDGIFWKHWIQTKDGQCGSPLVSTRDGFIVGIHSASNFTNTNNYFTSVPKNFMELLTNQEAQQWVSGWRLNADSVLWGGHKVFMVKPEEPFQPVKEATQL [Y12Q], for which the “area with substrate EALYFQS” value was found to be 0.0918, the “area with substrate ECLYFQS” value worked out at 0.11, the “area with substrate EDLYFQS” value amounted to 0.133 and the “area with substrate EELYFQS” value turned out to be 0.0997. The “area with substrate EFLYFQS” value amounted to 0.0817, the “area with substrate EGLYFQS” value was 0.107, the “area with substrate EHLYFQS” value was found to be 0.112 and the “area with substrate EILYFQS” value worked out at 0.106. Further, the “area with substrate EKLYFQS” value was 0.115, the “area with substrate ELLYFQS” value was 0.0974, the “area with substrate EMLYFQS” value was found to be 0.124 and the “area with substrate EPLYFQS” value was determined as 0.123. The “area with substrate EQLYFQS” value is 0.113, the “area with substrate ESLYFQS” value turned out to be 0.0935, the “area with substrate ETLYFQS” value is 0.131 and the “area with substrate EVLYFQS” value was found to be 0.109. For the same variant, the “area with substrate EWLYFQS” value was found to be 0.115 and the “area with substrate EYLYFQS” value was 0.151.

Turning to MGESLFKGPRDVNPISSSICHLTNESDGHTTSLYGIGFGPFIITNKHLFRRNNGTLVVQSLHGVFKVKDTTTLQQHLVDGRDMIIIRMPKDFPPFPQKLKFREPQREERICLVTTNFQTKSMSSMVSDTSCTFPSGDGIFWKHWIQTKDGQCGSPLVSTRDGFIVGIHSASNFTNTNNYFTSVPKNFMELLTNQEAQQWVSGWRLNADSVLWGGHKVFMVKPEEPFQPVKEATQL [Y12V], the “area with substrate EALYFQS” value came out at 0.138, the “area with substrate EFLYFQS” value was 0.0902, the “area with substrate EGLYFQS” value was 0.0949 and the “area with substrate EHLYFQS” value is 0.0871. In addition, the “area with substrate EILYFQS” value was determined as 0.129, the “area with substrate EKLYFQS” value turned out to be 0.101, the “area with substrate ELLYFQS” value turned out to be 0.105 and the “area with substrate EMLYFQS” value was 0.109. The “area with substrate EPLYFQS” value is 0.123, the “area with substrate EQLYFQS” value was 0.125, the “area with substrate ERLYFQS” value worked out at 0.0905 and the “area with substrate ESLYFQS” value was 0.106. The “area with substrate EWLYFQS” value is 0.107.

Consider MGESLFKGPRDINPISSSICHLTNESDGHTTSLYGIGFGPFIITNKHLFRRNNGTLVVQSLHGVFKVKDTTTLQQHLVDGRDMIIIRMPKDFPPFPQKLKFREPQREERICLVTTNFQTKSMSSMVSDTSCTFPSGDGIFWKHWIQTKDGQCGSPLVSTRDGFIVGIHSASNFTNTNNYFTSVPKNFMELLTNQEAQQWVSGWRLNADSVLWGGHKVFMVKPEEPFQPVKEATQL [Y12I], for which the “area with substrate EALYFQS” value was 0.151, the “area with substrate ECLYFQS” value worked out at 0.074, the “area with substrate EDLYFQS” value is 0.147 and the “area with substrate EELYFQS” value was found to be 0.0857. For the same variant, the “area with substrate EFLYFQS” value is 0.149, the “area with substrate EGLYFQS” value came to 0.0954, the “area with substrate EHLYFQS” value was determined as 0.0927 and the “area with substrate EILYFQS” value was 0.096. Moreover, the “area with substrate EKLYFQS” value was 0.101, the “area with substrate ELLYFQS” value is 0.0878, the “area with substrate EMLYFQS” value was 0.069 and the “area with substrate EQLYFQS” value was determined as 0.0762. Further, the “area with substrate ERLYFQS” value came to 0.0915, the “area with substrate ESLYFQS” value worked out at 0.0939, the “area with substrate ETLYFQS” value was found to be 0.103 and the “area with substrate EVLYFQS” value is 0.0893. The “area with substrate EWLYFQS” value was determined as 0.0892 and the “area with substrate EYLYFQS” value is 0.104.

In the case of MGYSLFKGPRDYNPISSSICHLTNESDGHTTSLYGIGFGPFIITNKHLFRRNNGTLVVQSLHGVFKVKDTTTLQQHLVDGRDMIIIRMPKDFPPFPQKLKFREPQREERICLVTTNFQTKSMSSMVSDTSCTFPSGDGIFWKHWIQTKDGQCGSPLVSTRDGFIVGIHSASNFTNTNNYFTSVPKNFMELLTNQEAQQWVSGWRLNADSVLWGGHKVFMVKPEEPFQPVKEATQL [E3Y], the “area with substrate EALYFQS” value is 0.136, the “area with substrate ECLYFQS” value came out at 0.124, the “area with substrate EDLYFQS” value worked out at 0.16 and the “area with substrate EFLYFQS” value was determined as 0.111. Besides, the “area with substrate EKLYFQS” value was determined as 0.167, the “area with substrate EMLYFQS” value is 0.133, the “area with substrate EPLYFQS” value came to 0.0266 and the “area with substrate EQLYFQS” value came to 0.115. Also, the “area with substrate ERLYFQS” value was 0.112, the “area with substrate ESLYFQS” value amounted to 0.133 and the “area with substrate EVLYFQS” value was determined as 0.134.

MGESLFKGPRDYNPNSSSICHLTNESDGHTTSLYGIGFGPFIITNKHLFRRNNGTLVVQSLHGVFKVKDTTTLQQHLVDGRDMIIIRMPKDFPPFPQKLKFREPQREERICLVTTNFQTKSMSSMVSDTSCTFPSGDGIFWKHWIQTKDGQCGSPLVSTRDGFIVGIHSASNFTNTNNYFTSVPKNFMELLTNQEAQQWVSGWRLNADSVLWGGHKVFMVKPEEPFQPVKEATQL [I15N]: the “area with substrate EALYFQS” value amounted to 0.0817, the “area with substrate ECLYFQS” value turned out to be 0.0708, the “area with substrate EDLYFQS” value was determined as 0.089 and the “area with substrate EELYFQS” value stood at 0.0678. The “area with substrate EFLYFQS” value came to 0.0804, the “area with substrate EGLYFQS” value came to 0.0694, the “area with substrate EHLYFQS” value stood at 0.0912 and the “area with substrate EILYFQS” value came out at 0.0831. Moreover, the “area with substrate EKLYFQS” value was determined as 0.0578, the “area with substrate ELLYFQS” value was determined as 0.0809, the “area with substrate EMLYFQS” value was determined as 0.0839 and the “area with substrate EPLYFQS” value came to 0.1. Also, the “area with substrate EQLYFQS” value was found to be 0.0777, the “area with substrate ERLYFQS” value came to 0.0757, the “area with substrate ESLYFQS” value was determined as 0.0683 and the “area with substrate EVLYFQS” value is 0.1. The “area with substrate EWLYFQS” value is 0.0677 and the “area with substrate EYLYFQS” value amounted to 0.0772.

For the variant MGESLFKGPRDYNPFSSSICHLTNESDGHTTSLYGIGFGPFIITNKHLFRRNNGTLVVQSLHGVFKVKDTTTLQQHLVDGRDMIIIRMPKDFPPFPQKLKFREPQREERICLVTTNFQTKSMSSMVSDTSCTFPSGDGIFWKHWIQTKDGQCGSPLVSTRDGFIVGIHSASNFTNTNNYFTSVPKNFMELLTNQEAQQWVSGWRLNADSVLWGGHKVFMVKPEEPFQPVKEATQL [I15F], the “area with substrate EALYFQS” value came out at 0.105, the “area with substrate ECLYFQS” value was 0.098, the “area with substrate EDLYFQS” value turned out to be 0.102 and the “area with substrate EELYFQS” value is 0.122. In addition, the “area with substrate EFLYFQS” value came out at 0.101, the “area with substrate EGLYFQS” value was found to be 0.0868, the “area with substrate EHLYFQS” value is 0.0971 and the “area with substrate EILYFQS” value is 0.0908. In addition, the “area with substrate EKLYFQS” value was 0.1, the “area with substrate ELLYFQS” value turned out to be 0.0699, the “area with substrate EMLYFQS” value turned out to be 0.106 and the “area with substrate EPLYFQS” value was 0.105. The “area with substrate EQLYFQS” value amounted to 0.107, the “area with substrate ERLYFQS” value turned out to be 0.0914, the “area with substrate ESLYFQS” value came out at 0.0997 and the “area with substrate ETLYFQS” value was 0.0988. Moreover, the “area with substrate EVLYFQS” value is 0.0954 and the “area with substrate EYLYFQS” value amounted to 0.103.

Take MGESLFKGPRDYNPLSSSICHLTNESDGHTTSLYGIGFGPFIITNKHLFRRNNGTLVVQSLHGVFKVKDTTTLQQHLVDGRDMIIIRMPKDFPPFPQKLKFREPQREERICLVTTNFQTKSMSSMVSDTSCTFPSGDGIFWKHWIQTKDGQCGSPLVSTRDGFIVGIHSASNFTNTNNYFTSVPKNFMELLTNQEAQQWVSGWRLNADSVLWGGHKVFMVKPEEPFQPVKEATQL [I15L]: the “area with substrate EALYFQS” value is 0.14, the “area with substrate ECLYFQS” value is 0.105, the “area with substrate EDLYFQS” value was 0.121 and the “area with substrate EELYFQS” value was 0.125. The “area with substrate EFLYFQS” value stood at 0.148, the “area with substrate EGLYFQS” value was 0.111, the “area with substrate EHLYFQS” value was 0.0972 and the “area with substrate EILYFQS” value worked out at 0.0982. The “area with substrate EKLYFQS” value stood at 0.0895, the “area with substrate ELLYFQS” value turned out to be 0.0981, the “area with substrate EMLYFQS” value was determined as 0.107 and the “area with substrate EQLYFQS” value was 0.0736. Also, the “area with substrate ERLYFQS” value was 0.0946, the “area with substrate ESLYFQS” value was 0.0973, the “area with substrate ETLYFQS” value is 0.117 and the “area with substrate EVLYFQS” value turned out to be 0.114. For the same variant, the “area with substrate EWLYFQS” value was 0.0661 and the “area with substrate EYLYFQS” value worked out at 0.11.

Turning to MGESLFKGPREYNPISSSICHLTNESDGHTTSLYGIGFGPFIITNKHLFRRNNGTLVVQSLHGVFKVKDTTTLQQHLVDGRDMIIIRMPKDFPPFPQKLKFREPQREERICLVTTNFQTKSMSSMVSDTSCTFPSGDGIFWKHWIQTKDGQCGSPLVSTRDGFIVGIHSASNFTNTNNYFTSVPKNFMELLTNQEAQQWVSGWRLNADSVLWGGHKVFMVKPEEPFQPVKEATQL [D11E], the “area with substrate EALYFQS” value is 0.11, the “area with substrate ECLYFQS” value is 0.0952, the “area with substrate EDLYFQS” value was 0.121 and the “area with substrate EELYFQS” value came out at 0.121. The “area with substrate EFLYFQS” value worked out at 0.084, the “area with substrate EGLYFQS” value amounted to 0.087, the “area with substrate EHLYFQS” value came out at 0.099 and the “area with substrate EILYFQS” value was found to be 0.135. Further, the “area with substrate EKLYFQS” value is 0.105, the “area with substrate ELLYFQS” value amounted to 0.0876, the “area with substrate EMLYFQS” value turned out to be 0.0847 and the “area with substrate EPLYFQS” value amounted to 0.117. Further, the “area with substrate EQLYFQS” value is 0.125, the “area with substrate ESLYFQS” value turned out to be 0.1, the “area with substrate ETLYFQS” value was found to be 0.111 and the “area with substrate EVLYFQS” value was determined as 0.0873. Moreover, the “area with substrate EWLYFQS” value is 0.0926 and the “area with substrate EYLYFQS” value is 0.126.
